According to paper PMC7819943, “Rice protein-binding microarrays: a tool to detect cis-acting elements near promoter regions in rice”:
Some of the results follow.

What follows are sequences tested against T1, OsWOX13 (Oryza sativa, UniProt Q5QMM3 1-267) (assay: protein-binding microarray (RPBM); PBS, 2% BSA, 51.3 ng/ul salmon testes DNA, 50 uM zinc acetate, 200 nM TF, 25 C, 1 h; high values mean tight binding). Settings: protein: recombinant; tags: N-terminal polyhistidine and DsRed monomer fusion (pET32a); label: CyDye5-dUTP incorporated in the synthesized complementary strand; 3' TTTTT single-stranded linker to array surface; dsDNA, one strand shown.
T1 sequence: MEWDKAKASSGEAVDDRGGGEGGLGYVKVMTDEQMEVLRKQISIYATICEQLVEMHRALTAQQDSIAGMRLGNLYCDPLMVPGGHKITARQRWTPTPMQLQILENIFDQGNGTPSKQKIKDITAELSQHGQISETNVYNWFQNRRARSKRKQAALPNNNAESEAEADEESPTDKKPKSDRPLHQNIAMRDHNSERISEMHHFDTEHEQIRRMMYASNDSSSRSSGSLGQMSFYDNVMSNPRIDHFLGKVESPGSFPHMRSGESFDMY
In short: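 Per-feature fluorescence intensity (arbitrary units), read on an Axon 4000B scanner, is the binding signal. Transcription factors carrying an N-terminal polyhistidine tag and DsRed fusion were expressed in E. coli BL21-CodonPlus and purified on Ni–NTA. A custom Agilent array, made double-stranded by primer extension with Cy5-dUTP and blocked with 2% BSA, was incubated with 200 nM protein in PBS, 2% BSA, salmon testes DNA and 50 µM zinc acetate at 25 °C for 1 h and then washed.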

Sequence	binding signal
AATAATAACTTAATTAATTATGTACTAATGACTCAATTTTCGGAGTCACCTAGTGCAG	26000 fluorescence intensity (a.u.)
AACAAATAAATTACTATTAGAGTAGGATGTTCGGCAAAGTCGGAGTCACCTAGTGCAG	7390 fluorescence intensity (a.u.)
TCCCACATTTATATTGATGTATATATATATCTAGATTCATCGGAGTCACCTAGTGCAG	3440 fluorescence intensity (a.u.)
CCGACGAGGCTGTAATTGGAGTATTTCCATTTCCTCTCTCCGGAGTCACCTAGTGCAG	5780 fluorescence intensity (a.u.)
ACATGTCACAGAGAATCAATCATTCACAATTAAACAGTGACGGAGTCACCTAGTGCAG	7780 fluorescence intensity (a.u.)
CTCAATTATTGTTTCATTGAGCATTGTTTCCTACCATACACGGAGTCACCTAGTGCAG	13900 fluorescence intensity (a.u.)
TCTAAACTACAAGATGATAATAATTATTTTCTTAGTCTTTCGGAGTCACCTAGTGCAG	9040 fluorescence intensity (a.u.)
TATTGAAATTAATCAACCATCACCTACAACTCATGAATTTCGGAGTCACCTAGTGCAG	5320 fluorescence intensity (a.u.)
ACTATTCCTAATTAATAGATAAACTGCCATGCCGCATTCTCGGAGTCACCTAGTGCAG	14800 fluorescence intensity (a.u.)
ACCAATAATTAGTTGCAGCTAATAAAAGTCATCTGTAGCCCGGAGTCACCTAGTGCAG	25400 fluorescence intensity (a.u.)
ATCCATCAATTCTAATTCTAATTCAAATTTCTATTCTATTCGGAGTCACCTAGTGCAG	3620 fluorescence intensity (a.u.)
AACCCTGATTTCCGTGCTCAACGTTTGACCGTCCGTCTTGCGGAGTCACCTAGTGCAG	4670 fluorescence intensity (a.u.)
TACCAATTGATGTGATAAATTATTATAACTAAAATTTCTGCGGAGTCACCTAGTGCAG	41200 fluorescence intensity (a.u.)
CTTACAAATTTACACTAGGCATTTGCGTTTCCCCGGTAAACGGAGTCACCTAGTGCAG	3460 fluorescence intensity (a.u.)
TAAGGGATTGACTGTGCTAAAAGAATCTTAATTGTATAGTCGGAGTCACCTAGTGCAG	34600 fluorescence intensity (a.u.)
TTGAGGAGATTGGGAAGATACGCAAAACGAGGTGAGCTATCGGAGTCACCTAGTGCAG	3980 fluorescence intensity (a.u.)
GCAACACAAGAATTAATTTTACCGGACTTTCACACGAATTCGGAGTCACCTAGTGCAG	3560 fluorescence intensity (a.u.)
CACAAAACTAATTACGATATACCATTCTCATGTAGACGTTCGGAGTCACCTAGTGCAG	13700 fluorescence intensity (a.u.)
TGTAGATAGACTTTGTTTGGTATTACTTGGTTACCTGTCACGGAGTCACCTAGTGCAG	3310 fluorescence intensity (a.u.)
TTTTATTTAAATATTACATTAATAAAATGGTGTAACGCCACGGAGTCACCTAGTGCAG	3740 fluorescence intensity (a.u.)
ACCCTCTTCTATCAACTAATCACAACCATTCTCTATTTAACGGAGTCACCTAGTGCAG	5190 fluorescence intensity (a.u.)

Sequence	binding signal
TGACAAATCAATTGGAGAGCTAGTTATATGGGTGTTTGGACGGAGTCACCTAGTGCAG	4750 fluorescence intensity (a.u.)
GTCACATCATTCTAATTTCAATTAAACTTCAAATTTTGGCCGGAGTCACCTAGTGCAG	12900 fluorescence intensity (a.u.)
GTTATTTCTCCATCTAAGTTTGATTGACCTATATAAAATTCGGAGTCACCTAGTGCAG	8800 fluorescence intensity (a.u.)
TGTCACATCACATCGATCATTGATTTCACTTTGATTCCTCCGGAGTCACCTAGTGCAG	5220 fluorescence intensity (a.u.)
ATAGATTACATAGACCCCGGGTGTATATATTTATACCCATCGGAGTCACCTAGTGCAG	4280 fluorescence intensity (a.u.)
GAAAACAATAACTGCGTTAACCTCGCATTTCTGTACTACGCGGAGTCACCTAGTGCAG	3630 fluorescence intensity (a.u.)
CATATTAATTGTTAAAGTTGTCATCATCCAAATTGTTATACGGAGTCACCTAGTGCAG	11100 fluorescence intensity (a.u.)
TAAGGCAGAAAACCAAGGCCTTGACATTTCTTTTAGGACACGGAGTCACCTAGTGCAG	65000 fluorescence intensity (a.u.)
GTTTGATCTATTATTTGCAAATCTTGTCAGTTGTAGGATTCGGAGTCACCTAGTGCAG	5640 fluorescence intensity (a.u.)
ACTATAATTTGCTTTGTTTATTTCCTATGATGGTATTAAACGGAGTCACCTAGTGCAG	10300 fluorescence intensity (a.u.)
AATAATTACTTAAATTTCTTGAATAAGACGAACGGTCAAACGGAGTCACCTAGTGCAG	29400 fluorescence intensity (a.u.)
ATTAATTATTTTCGTATCATTTGATTTATGTATACATATACGGAGTCACCTAGTGCAG	9560 fluorescence intensity (a.u.)
AAATTTAGCAATTAATAAATGGGCACATACCGTCCATAAACGGAGTCACCTAGTGCAG	4240 fluorescence intensity (a.u.)
GAAATTATTTGAAATTTTGACTGATTTTGAATGAATTTGACGGAGTCACCTAGTGCAG	15200 fluorescence intensity (a.u.)
AGCTAGGTCAATCATGCATGCATGAATATGTGGCCGAGTTCGGAGTCACCTAGTGCAG	3270 fluorescence intensity (a.u.)
CTGATCAATTAGTACTTTACTTCCTTTATTATTCTTTCCTCGGAGTCACCTAGTGCAG	17200 fluorescence intensity (a.u.)
CAATGTAATTACACTACGATTGTGCTATAATTACATTTGTCGGAGTCACCTAGTGCAG	18300 fluorescence intensity (a.u.)
GTGGATAATTAGCGGTAGCTTTTGTCCATTCATGTCTTGGCGGAGTCACCTAGTGCAG	26200 fluorescence intensity (a.u.)
CTCCAAATTAGTATCCAAACATCCGATGTGACATGGACTTCGGAGTCACCTAGTGCAG	8670 fluorescence intensity (a.u.)
AGTAATTATATTTTACGACGGAGGAAGAACTAGTAGCTAACGGAGTCACCTAGTGCAG	6930 fluorescence intensity (a.u.)
CCACCAGATAATCAATCGCATTTTAACGTATCGCATCCCCCGGAGTCACCTAGTGCAG	8580 fluorescence intensity (a.u.)
